According to the antibiotic and cytotoxicity screens of Wong et al. (2023):
The list shows a part of the results.

How the values were obtained:
HSkMC = human skeletal muscle cells; experiment: cytotoxicity call (relative viability < 0.9); conditions: 10 µM
HepG2 = experiment: cytotoxicity call (relative viability < 0.9); conditions: 10 µM
S. aureus RN4220 = experiment: growth inhibition call (relative growth <= 0.2); conditions: 50 µM

C[C@@H]1CCCCO[C@@H](CN(C)Cc2ccc(Cl)c(Cl)c2)[C@H](C)CN([C@H](C)CO)C(=O)c2cc(NS(C)(=O)=O)ccc2O1
inactive: cytotoxicity call (HSkMC) | cytotoxicity call (HepG2) | growth inhibition call (S. aureus RN4220)

O=C(C[C@@H]1CC[C@@H]2[C@H](COC[C@@H](O)CN2S(=O)(=O)c2cccc(Cl)c2)O1)NCc1ccc2c(c1)OCO2
inactive: cytotoxicity call (HSkMC) | cytotoxicity call (HepG2) | growth inhibition call (S. aureus RN4220)

C[C@H]1CN([C@@H](C)CO)C(=O)Cc2cc(NC(=O)Nc3cccc4c3CCCC4)ccc2O[C@H]1CN(C)S(=O)(=O)c1ccc(Cl)cc1
inactive: cytotoxicity call (HSkMC) | cytotoxicity call (HepG2) | growth inhibition call (S. aureus RN4220)

C[C@H](CO)N1C[C@H](C)[C@H](CN(C)CC2CC2)Oc2c(NS(=O)(=O)c3ccccc3)cccc2C1=O
inactive: cytotoxicity call (HSkMC) | cytotoxicity call (HepG2) | growth inhibition call (S. aureus RN4220)

COc1cc2c(cc1OC)CC(=O)N(CCCN(C)CC1Cc3cc(OC)c(OC)cc31)CC2.Cl (configuration not stated)
inactive: cytotoxicity call (HSkMC) | cytotoxicity call (HepG2) | growth inhibition call (S. aureus RN4220)

Cc1noc(C)c1NC(=O)Nc1ccc2c(c1)C(=O)N([C@H](C)CO)C[C@H](C)[C@@H](CN(C)Cc1ccncc1)OCCCC[C@H](C)O2
inactive: cytotoxicity call (HSkMC) | cytotoxicity call (HepG2) | growth inhibition call (S. aureus RN4220)

Cc1ccc(S(=O)(=O)Nc2ccc3c(c2)C(=O)N([C@@H](C)CO)C[C@@H](C)[C@H](CN(C)Cc2ccccc2)OCCCC[C@@H](C)O3)cc1
inactive: cytotoxicity call (HSkMC) | cytotoxicity call (HepG2) | growth inhibition call (S. aureus RN4220)

Cc1ccc(S(=O)(=O)Nc2cccc3c2O[C@@H](CN(C)Cc2ccc(Cl)c(Cl)c2)[C@@H](C)CN([C@H](C)CO)C3=O)cc1
inactive: cytotoxicity call (HSkMC) | cytotoxicity call (HepG2) | growth inhibition call (S. aureus RN4220)

C[C@@H]1CN([C@H](C)CO)C(=O)c2cc(NS(=O)(=O)c3cccs3)ccc2O[C@@H](C)CCCCO[C@H]1CN(C)S(=O)(=O)c1ccc(Cl)cc1
inactive: cytotoxicity call (HSkMC) | cytotoxicity call (HepG2) | growth inhibition call (S. aureus RN4220)

C[C@@H]1CN([C@@H](C)CO)S(=O)(=O)c2ccc(Br)cc2O[C@H]1CN(C)C(=O)c1ccncc1
inactive: cytotoxicity call (HSkMC) | cytotoxicity call (HepG2) | growth inhibition call (S. aureus RN4220)

CC(C)NC(=O)N(C)C[C@@H]1Oc2ccc(NC(=O)CCCN(C)C)cc2C(=O)N([C@H](C)CO)C[C@H]1C
inactive: cytotoxicity call (HSkMC) | cytotoxicity call (HepG2) | growth inhibition call (S. aureus RN4220)

C[C@H](CO)N1C[C@H](C)[C@@H](CN(C)S(=O)(=O)c2cccc(F)c2)Oc2ncc(-c3cccc(C(=O)N(C)C)c3)cc2C1=O
inactive: cytotoxicity call (HSkMC) | cytotoxicity call (HepG2) | growth inhibition call (S. aureus RN4220)

COc1cccc(C#Cc2ccc3c(c2)O[C@H](CN(C)C(=O)c2ccccn2)[C@@H](C)CN([C@@H](C)CO)S3(=O)=O)c1
inactive: cytotoxicity call (HSkMC) | cytotoxicity call (HepG2) | growth inhibition call (S. aureus RN4220)

C[C@@H]1CCCCO[C@@H](CN(C)Cc2ccc(Cl)c(Cl)c2)[C@@H](C)CN([C@H](C)CO)C(=O)c2cc(N(C)C)ccc2O1
inactive: cytotoxicity call (HSkMC) | cytotoxicity call (HepG2) | growth inhibition call (S. aureus RN4220)

COC(CNC(=O)C1CCN(S(=O)(=O)c2cccc3nsnc23)CC1)OC
inactive: cytotoxicity call (HSkMC) | cytotoxicity call (HepG2) | growth inhibition call (S. aureus RN4220)

C[C@@H]1CN([C@H](C)CO)C(=O)Cc2cc(NC(=O)Nc3cccc4ccccc34)ccc2O[C@@H]1CN(C)C(=O)Nc1ccccc1
inactive: cytotoxicity call (HSkMC) | cytotoxicity call (HepG2) | growth inhibition call (S. aureus RN4220)

C[C@H](CO)N1C[C@H](C)[C@H](CN(C)S(=O)(=O)c2ccccc2)Oc2ccc(NS(=O)(=O)c3ccccc3)cc2C1=O
inactive: cytotoxicity call (HSkMC) | cytotoxicity call (HepG2) | growth inhibition call (S. aureus RN4220)

NC(=O)N1CCC[C@H](C(=O)O)C1
inactive: cytotoxicity call (HSkMC) | cytotoxicity call (HepG2) | growth inhibition call (S. aureus RN4220)

CC[C@H]1OC(=O)[C@H](C)[C@@H](O[C@H]2C[C@@](C)(OC)[C@@H](O)[C@H](C)O2)[C@H](C)[C@@H](O[C@@H]2O[C@H](C)C[C@H](N(C)C)[C@H]2O)[C@](C)(O)C[C@@H](C)CN(C)[C@H](C)[C@@H](O)[C@]1(C)O
inactive: cytotoxicity call (HSkMC) | cytotoxicity call (HepG2) | growth inhibition call (S. aureus RN4220)

C=C/C=C/[C@H]1C(=C)CN([C@H](Cc2ccc(-n3cc(C(=O)NO)nn3)cc2)C(=O)OC)[C@@H]1[C@H](O)Cc1ccccc1
inactive: cytotoxicity call (HSkMC) | cytotoxicity call (HepG2) | growth inhibition call (S. aureus RN4220)

C[C@@H]1CN([C@H](C)CO)S(=O)(=O)c2ccc(C#CCN(C)C)cc2O[C@H]1CN(C)S(C)(=O)=O
inactive: cytotoxicity call (HSkMC) | cytotoxicity call (HepG2) | growth inhibition call (S. aureus RN4220)

C[C@@H]1CN([C@@H](C)CO)C(=O)c2cc(NC(=O)C3CCCCC3)ccc2O[C@@H](C)CCCCO[C@@H]1CN(C)S(=O)(=O)c1ccc(F)cc1
inactive: cytotoxicity call (HSkMC) | cytotoxicity call (HepG2) | growth inhibition call (S. aureus RN4220)

Cc1cc(C(=O)Nc2cccc3c2O[C@@H](CN(C)C(=O)Nc2ccc4c(c2)OCO4)[C@H](C)CN([C@H](C)CO)C3=O)n(C)n1
inactive: cytotoxicity call (HSkMC) | cytotoxicity call (HepG2) | growth inhibition call (S. aureus RN4220)

O=C(C[C@H]1CC[C@@H]2[C@H](COC[C@@H](O)CN2C(=O)Nc2cc(Cl)cc(Cl)c2)O1)N1CCOCC1
inactive: cytotoxicity call (HSkMC) | cytotoxicity call (HepG2) | growth inhibition call (S. aureus RN4220)
